PubChem BioAssay AID686978 (National Center for Advancing Translational Sciences (NCATS), 2013)
In all, about 420,000 compounds went through this assay and about 64,000 (15%) were called active. Inconclusive results, whose numbers are uncertain, are shown with a selection of clear calls. Calls come from the whole dose curve; as a rule, active = well fitted inhibition curve with a large enough effect; inconclusive = small, poorly fitted or top-dose-only effect; inactive = flat fitted curve, though single readings scatter. Potencies of inconclusive entries are left out as doubtful fits.

Test: qHTS for Inhibitors of human tyrosyl-DNA phosphodiesterase 1 (TDP1): qHTS in cells in absence of CPT; note: nearly all actives have a fitted effect of over 55% in size
Conditions: DT40 Tdp1-/- hTDP1 cells, no CPT, ATP luminescence, 48 h; activity change, negative = growth inhibition: at 46.2 µM (top of the series)
In short: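 Luminescent ATP content (CellTiter-Glo) served as the growth readout. Knockout chicken DT40 cells expressing human TDP1 were exposed to compounds without camptothecin for a minimum 48 hr at 37 °C.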
% is set by controls: 0 for no effect and ±100 for the full control effect; potency is the fitted concentration of half-maximal effect; tags give direction and shape of the fitted curve.

Structure (SMILES)	activity change, negative = growth inhibition	Potency
CNNC(=O)C(C)NC(=O)c1ccc(Br)cc1 (configuration not stated)	inactive: -16.8%	
COc1cccc2sc(N(Cc3cccnc3)C(=O)c3ccc(S(=O)(=O)N(C)C)cc3)nc12		inconclusive [inhibitor, single point]
CCC1C(=O)n2nc(-c3ccccc3)cc2N=C1C (configuration not stated)		active: 10 µM
CC(C)N(C)S(=O)(=O)c1ccc(Cl)c(C(=O)O)c1	inactive: -4.49%	
CC(=O)c1ccc(NC(=O)CN2CCN(S(=O)(=O)c3ccc4ccccc4c3)CC2)cc1		inconclusive [inhibitor, single point]
CC1CCCC(NC(=O)c2ccc3snnc3c2)C1C (configuration not stated)		inconclusive [inhibitor, single point]
Cc1ccc(OC(=O)C2CCN(C(=O)c3ccccc3C)CC2)c(Br)c1	inactive: -13.6%	
CCCCCCCCCCCC(=O)O[C@H](CC(=O)O)C[N+](C)(C)C	inactive: -7.19%	
CN(c1ccc(C(=O)NCc2ccncc2)cc1)S(=O)(=O)c1ccc(Cl)cc1		inconclusive [inhibitor, partial curve, poor fit]
CCC(C(=O)NC(C)(C)C)N(C(=O)Cn1nnc(-c2ccccc2F)n1)c1cccc2c1CCCC2 (configuration not stated)		active: 18.4 µM
Cc1ccc(C(=O)NCN2CCN(c3ccc(F)cc3)CC2)cc1	inactive: -3.6%	
CCOC(=O)C1CCCN(S(=O)(=O)c2ccc(S(=O)(=O)N(CC)CC)cc2)C1 (configuration not stated)		active: 1.46 µM
Cc1cc(NC(=O)CSc2ccc(Cl)cc2)no1		active: 16.4 µM
CC1CCCN(Cc2c(O)ccc3c(=O)c(-c4ccc(Cl)cc4)c(C(F)(F)F)oc23)C1 (configuration not stated)	inactive: -3.14%	
COc1cccc(/C=N/NC(=O)c2ccc(=O)[nH]n2)c1O		active: 14.6 µM
c1ccc2sc(NC3=NCN(CCN4CCOCC4)CN3)nc2c1		inconclusive [inhibitor, partial curve]
O=C(OCC(=O)N1CCc2ccccc21)c1ccccc1[N+](=O)[O-]	inactive: 4.38%	
COc1ccc(F)cc1C(=O)C1CCCN(Cc2ccc3c(c2)OCCO3)C1 (configuration not stated)		inconclusive [inhibitor, single point]
O=C(O)C(=O)/C(=C\c1ccc(Cl)cc1)c1ccc2ccccc2n1		inconclusive [inhibitor, single point]
COc1cccc(-c2cnc3c(NC(C)=O)cc(-c4ccccc4OC)cn23)c1		active: 16.4 µM
O=C(CSc1nnc(-c2ccc3c(c2)OCO3)o1)Nc1c(F)cccc1F	inactive: 1.88%	
CC(C)(O)c1ccccc1CC[C@@H](SCC1(CC(=O)O)CC1)c1cccc(/C=C/c2ccc3ccc(Cl)cc3n2)c1		inconclusive [inhibitor, single point]
